Test results taken from the supplement of paper PMC5499739.
The full ranking holds about 16,000 sequences; the median of “Z-score” is about -0.37, and the highest 2% start at about 3.1. The list shows a part of the results.

Tested on: RBM10 RRM1-ZnF-RRM2 (GST-tagged construct)
Experiment: RNAcompete 7-mer binding Z-score; higher = stronger binding preference
How it was run: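 Each heptamer motif was given a one-sided Z-score for enrichment across the probes that contained it. GST-tagged RBM10 constructs (20 pmol) were combined with 1.5 nmol of a designed pool of 241 399 RNAs of up to 41 nt, transcribed from microarray-derived DNA templates. Binding took place in 1 ml Hepes pH 7.8 buffer containing KCl, NaCl, glycerol, DTT, BSA and glutathione Sepharose beads for 30 min at 4°C. After four 2-min washes at 4°C, bound RNA was identified by microarray hybridisation.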

Sequence | RNAcompete 7-mer binding Z-score
UGUCUUA | -0.81
AUCCCUG | -0.825
CCCCCAA | -0.653
AGCGUAA | 0.21
ACUUCCG | -0.763
CUAAACG | -0.479
CUACUCG | -0.697
CGAAGAA | 0.0641
CUGUUUG | -0.606
GCAUCGA | -0.22
CAAAUUA | -0.704
GCUUAUU | -0.861
CUGUCAG | -0.5
UAUCACC | -0.883
AUCCCAU | -0.635
UCGCCCA | -0.825
AUCUGCA | -0.806
CCCGGGA | -0.00148
GUAAUAC | -0.227
UAAAGCG | 0.297
UUGACUA | -0.61
CGGGAAC | 1.5
ACUCCGG | -0.329
UCGACUC | -0.788
CGUGCAU | -0.402

Sequence | RNAcompete 7-mer binding Z-score
GGUGGCC | 1.21
CACGUCG | -0.388
GUUCUAU | -0.785
UUGGGGC | 2.04
UGGAUUU | 0.217
AAUAACC | -0.555
CGGAGCA | 1.02
GUCACCG | -0.457
GAGGAUU | 1.16
AUUCGGA | 0.243
CUAGCUC | -0.712
GGUGGUC | 2.11
GCUUUGU | -0.653
AGAUUGU | -0.162
AGAUUGC | -0.362
CUCGCUU | -0.839
CUAUGUC | -0.785
AAUAUGU | -0.103
GAGAUGG | 4
CACAGAA | -0.191
CCUAUGU | -0.825
CUUAAGA | -0.635
ACAUAAA | -0.493
UAUCCCC | -0.653
UAUGUGA | 0.144

Sequence | RNAcompete 7-mer binding Z-score
GCACUCG | -0.424
CUUAUCG | -0.803
ACUCGCA | -0.803
UCAACAC | -0.479
UGAUGCC | -0.624
GCAAGUG | 0.709
CGUGCAC | -0.388
GUAAACG | 0.691
AGCGUAC | -0.34
GUGUCAC | -0.337
CGCGUGU | -0.439
CUCGAGC | -0.595
GCCCAGU | -0.602
GAAGCCG | -0.3
CUACUGA | -0.672
GGUCUGA | -0.296
GUGGCUU | -0.0962
CAUCACU | -0.803
UCCAUCU | -0.905
AAUCGAU | -0.235
UGGGGUC | 2.62
CGUGGGU | 2.43
CUUUGGU | -0.533
CAAUGAA | -0.271
UUUUCCG | -0.592

Sequence | RNAcompete 7-mer binding Z-score
UGCACGG | 0.836
UGGAUGC | 0.778
GCCGUUC | -0.81
AGACGCU | -0.999
UUUGACA | -0.65
GCUUAAU | -0.777
UCGCUAC | -0.803
CUGAAGC | -0.471
GUCCGCU | -0.686
CUCGAGU | -0.588
AAAGCAU | -0.246
CCAACAG | -0.136
CCCGAAU | -0.734
ACAGGUU | 1.3
UUUGGAA | 0.599
GGCCGAC | 0.243
CACUUGG | -0.329
AACGAGU | 0.472
CGACGAU | -0.304
AAUGGUC | 0.822
AGACCAC | -0.952
AACACCC | -0.577
CCGGGAA | 0.581
GGUAAAC | 1.12
GUCGCCC | -0.73

Sequence | RNAcompete 7-mer binding Z-score
GAAUGAU | 0.202
UGCCCUG | -0.632
CGGGUAG | 2.23
CUUUUUA | -0.952
GUGUACA | 0.527
CAUGAAC | -0.0197
AGUAGUC | -0.289
CAGCCGC | -0.53
ACUAGGA | 0.742
CACCUGC | -0.825
GACAAUU | -0.439
AGAGCCU | -1.09
CGUGAUU | -0.435
AACUGUG | 0.148
AACCACC | -0.632
AGUCAUG | 0.0313
AAAACAC | -0.267
GGAGAUA | 1.92
CGAGGGU | 3.55
GUCAUUG | -0.235
ACAGAUG | 0.468
GUGUAAA | 0.607
CUUAGAU | -0.675
AAAAGCA | -0.0197
CUGCUGU | -0.799

Sequence | RNAcompete 7-mer binding Z-score
CUUAUCA | -0.77
GGGCAAC | 2.2
AAUCGUU | -0.635
AACCCAC | -0.69
UUAUUGA | -0.355
CCGGGAG | 0.854
UAAAAGC | -0.515
AAGCACA | -0.351
UAGGGCC | 0.796
GCUCGCG | -0.475
AUGUAGU | 0.326
GACAGAA | 0.25
GGCUCGU | -0.0925
GAACGUG | 0.643
AAAAAAC | -0.271
CCCCAUA | -0.541
AGAUUCG | 0.0459
CUUCGCA | -0.69
CUCACAU | -0.81
CACUCUC | -0.854
CAGAGGC | 0.774
CCACGGA | 0.235
CGUGUAU | -0.154
CGACAAG | 0.17
GUUCCAC | -0.482

Sequence | RNAcompete 7-mer binding Z-score
AGAGUCG | 0.865
AGAACGC | -0.723
AAUGUGG | 2.07
CAGGAUU | 0.574
GUGUCGC | 0.0277
GCAGGGU | 3.35
CAUCGAU | -0.522
ACACACU | -0.683
GUUGGCA | 1.1
AUCCUGC | -1.01
GUGUGCU | 0.151
AAGACUG | 0.00944
AUUAGGG | 2.72
CAACCAG | -0.0925
ACAGCCC | -0.701
ACUGUUC | -0.934
CCCAUAG | -0.628
CGUGCGU | -0.0379
CAGGGCA | 2.55
ACAAGGG | 3.52
GAAUUGC | 0.0641
AUAUAGG | 1.38
UGCUAUG | -0.42
AUGCAGU | 0.141
GAAGUGU | 1.09

Sequence | RNAcompete 7-mer binding Z-score
CAAAUGU | -0.311
UCACAAA | -0.486
AGCGCGG | 1.04
AAGACGA | 0.629
AGCCUUU | -0.985
CGACCCC | -0.719
UUUCACC | -0.792
GUACCCU | -0.482
GUGAGGU | 2.97
UCAGGGU | 1.23
AUGGCGA | 1.92
AUUUAAG | -0.366
AUCGGCG | 0.337
CUGGACC | -0.577
CAGUCAC | -0.431
CUGGGGG | 1.81
GCCGUUA | -0.686
UGCCUAC | -0.661
AACUGGA | 0.825
AACGUUU | -0.679
UUCUAUA | -0.697
CAUGCCU | -0.846
GAAGGUG | 4.37
CUCUAAA | -0.668
ACGUAGU | 0.0896

Sequence | RNAcompete 7-mer binding Z-score
CCACCUU | -0.908
GGGCCGU | 0.64
CCUGGGA | 0.224
ACAUUGA | -0.333
GGUUCGU | 0.483
GGCGUCU | -0.122
CAAAGCU | -0.457
GCGUUUU | -0.475
UCCAGCC | -0.799
GGCUGUU | -0.38
GUAUGUG | 0.945
AGCCGCC | -0.468
AGAAUAA | -0.22
UAAUAGA | -0.00877
UUUAAUU | -0.602
AAUCCGU | -0.679
GAAACGA | 0.483
AGGAACA | 0.935
UUAAGUA | -0.384
CUUCCGU | -0.752
CGAGCCG | -0.296
UACGGUU | 0.181
CUUGAAU | -0.846
AGGCGCG | 0.472
ACAUAGC | -0.34

Sequence | RNAcompete 7-mer binding Z-score
CUCGUGA | -0.675
ACCCCAA | -0.617
UCCGAUU | -0.777
GAGAUAU | 0.37
UGUGGGC | 1.83
UCCUCGG | -0.581
GUAAUUU | -0.42
AAACUUC | -0.621
AGUAGAA | 0.916
GAUGACC | -0.0415
AGCGGAC | 1.1
AUACUGU | -0.675
UGUAGUC | -0.369
CCCCUUU | -0.836
ACUAGAA | -0.187
GCCCAUA | -0.828
UUUAUUA | -0.628
GGACUGC | 0.0969
CCGGCCG | -0.584
UCCCGGG | -0.0161
GUAAACU | -0.0853
GAUUACA | 0.253
CGCCCAU | -0.945
AUAUCAA | -0.333
AAAGAUU | -0.384

Sequence | RNAcompete 7-mer binding Z-score
UAUGACC | -0.672
CUCUUGC | -0.908
GCUGGGG | 2.46
CGUCGAC | -0.504
GAAUUAC | -0.347
GUCAUGA | 0.0167
GUUCGAA | -0.0925
CUCGCGC | -0.821
GCCAGCC | -0.613
UCUUUAU | -0.763
ACCAAAA | -0.428
UUUAAGU | -0.639
GCGAGCU | 0.177
GGGCUGG | 2.01
UUUACGA | -0.577
UUCUGUC | -0.806
UUGGCGU | 0.279
GUCUACC | -0.442
GGCGUCC | -0.0452
GUGAUUU | -0.406
UUCGUUA | -0.646
AAUGAUC | -0.431
ACCCUUA | -1.07
CUAAGCA | -0.657
AUCGCCU | -1.02

Sequence | RNAcompete 7-mer binding Z-score
GCUUAGA | -0.398
AAUGGAA | 3.27
CGCGAAG | -0.278
UUCGAAU | -0.53
UCCACGG | -0.129
GAGAUGA | 1.2
CGAACCG | -0.504
CUUCAUC | -0.905
ACUCGUU | -0.846
UCCCUCU | -0.748
CAUAAAG | -0.362
AUCAGUA | 0.228
CGGGAGC | 1.42
UUAGCGG | 0.294
GUCGGUC | -0.162
ACGGGCG | 1.52
CUACAAC | -0.562
GCGCCUU | -0.836
UCUUCAU | -0.81
GGCCAGA | 0.177
GGCCGGG | 1.32
UCCUACC | -0.69
UUCUGUU | -0.781
UGGGCCU | 0.13
AAAAGCU | -0.533

Sequence | RNAcompete 7-mer binding Z-score
AUCGAGA | 0.352
UAGGUAU | 0.894
UAUGCCA | -0.646
AUUCAUA | -0.522
UGGUCCC | -0.242
AAAGCCC | -0.803
UUAAUCA | -0.417
ACUAAUG | -0.333
UCGGAAG | 0.472
AUGCCCG | -0.646
CUGAUUG | -0.471
UUUCCAA | -0.675
GGUUGGG | 4.42
CCCGAGG | 0.192
GGUGACC | 0.567
CUUCGUC | -0.712
UAUCCUG | -0.887
ACCAGUU | -0.723
AAAGAAA | 0.108
GUACUUA | -0.267
GCAAUUG | 0.363
AAAUUCA | -0.435
UGAACGA | 0.337
AUAAUUG | -0.326
UUGGUCG | 0.0859

Sequence | RNAcompete 7-mer binding Z-score
GCCCAGA | -0.577
GAUGCAC | -0.22
CUAUUAU | -0.785
GCUAUAC | -0.562
GAUCGUU | -0.464
ACGUUGG | 0.548
GUAUGCG | 0.687
GGGGUCC | 1.28
UGUCGUU | -0.577
CUGGCCU | -0.89
GCGAGGU | 1.82
UGAAGUU | -0.0816
GAGGUCC | 0.0896
AAACCUU | -0.857
UGAUCCA | -0.515
AGGUGCG | 1.87
UUGUUAA | -0.65
GGUCCCU | -0.519
AGGAAUC | 0.0422
UAGCUAU | -0.672
CAAGCGA | 0.151
GCUAACU | -0.384
AGCCAUC | -0.777
CAGCGCC | -0.358
CUAAUGA | -0.613

Sequence | RNAcompete 7-mer binding Z-score
GUCUUGC | -0.861
UAUACCA | -0.479
AUUAUUG | -0.344
ACUUGCG | -0.734
CCGUUCA | -0.683
UGGGCCC | 0.253
UUGUCAA | -0.741
CUCCGCU | -0.734
CGUCCCG | -0.595
UUUAUGU | -0.541
GAUAGAC | 0.213
CAUACCG | -0.551
UUUGCGU | -0.628
AGCAAAG | 0.771
AUCUGAA | -0.643
GCUUGAC | -0.621
CUCAUGA | -0.701
